Values joined by “and” are separate entries in the source; they are usually repeats but may differ in a detail not shown here. Equal entries are not always repeated.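 Assay format: 96-well plates, 48-hour exposure. At the GI50, growth is halved. TGI denotes the concentration required for complete inhibition of growth.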 Bounds are passed on as bounds.

For this assay, the system named is NCI-H322M lung. The assay can be described thus: NCI anticancer screen, dose series, 48 h.
For the compound `Brc1ccc2[nH]cc(-c3nc(-c4c[nH]c5ccncc45)cs3)c2c1`, the GI50 is 1.75 µM and the TGI is 3.17 µM.

Regarding `O=C1C=Cc2noc3cccc1c23`, the TGI came out at 29.7 µM.

As for `Cc1ccc2c3ccc4c(c3n(C)c2c1)C(=O)C=CC4=O`, the TGI is over 10 µM.

As for `Cc1ccc(S(=O)(=O)ON=C2CC(c3ccccc3)N(C)C(c3ccccc3)C2)cc1` (centres undefined), the TGI is 49.4 µM and 49.8 µM.

For the compound `C=C(C)[C@@H]1CC[C@]2(C#N)CC[C@]3(C)[C@H](CC[C@@H]4[C@@]5(C)CCCNC(C)(C)[C@@H]5CC[C@]43C)[C@@H]12`, the GI50 was 1.89 µM and the TGI worked out at 3.66 µM.

Regarding `NCCCN1CCN(CCCNc2ccc3ncn4c5ccccc5c(=O)c2c34)CC1`, the TGI is 17.2 µM.

As for `CCn1c(-c2cc3ccccc3cc2OC(=O)c2ccccc2)n[nH]c1=S`, the GI50 is over 50 µM and the TGI is over 50 µM.

Compound `NC(=S)N1N=C(c2ccc3c(c2)CCC3)CC1c1ccccc1` (centres undefined) showed a TGI of over 100 µM.

For the compound `CC(=O)OCC1OC(O[C@@H]2C[C@H]3C(C)(C)[C@H](OC(C)=O)CC[C@]3(C)[C@H]3CC[C@@H]4[C@]5(CC[C@@]4(C)[C@@]32C)O[C@@H]([C@H](O)C(C)(C)O)C[C@@H]5C)C(O)C(O)C1O` (some centres undefined), the GI50 was 1.69 µM and the TGI turned out to be 3.39 µM.

In turn, `CN(C)CCCN1C(=O)N(CCCN(C)C)c2c3cc(O)ccc3nc3c([N+](=O)[O-])ccc1c23` showed a TGI of 45.4 µM.

`C=C1C(=O)O[C@H]2[C@H](OC(C)=O)[C@@H](C)CCC/C(C)=C/CC[C@]3(CO3)[C@H](O)C[C@@H]12`: the GI50 is 18.2 µM and the TGI was 40.8 µM.

Consider `CCCC/C(C)=N/NC(N)=S`, for which the TGI was over 100 µM.

As to `OCC1=C[C@@](COCc2ccccc2)(OCc2ccccc2)[C@@H](OCc2ccccc2)[C@@H]1OCc1ccccc1`, the TGI was over 100 µM.

Regarding `O=C(O)CCN1C(=O)/C(=C/C(Cl)=C/c2ccccc2)SC1=S`, the GI50 is 4.26 µM and the TGI came out at 16 µM.

`CN(NC(=O)/C(=C/C=C/c1ccccc1)NC(=O)c1ccccc1)C1=C(Cl)C(=O)[N+](c2ccccc2)=CC1` yielded a TGI of over 100 µM.

For `Cc1cc(C#Cc2ccccc2)ccc1-n1c(/C=C/c2ccc(O)cc2)nc2ccccc2c1=O`, the GI50 was 2.93 µM and the TGI was over 100 µM.

The compound `Cc1cc(=O)[nH]c(S(=O)(=O)NC(=S)Nc2ccc(Br)cc2)n1` showed a TGI of over 100 µM.

`C[Si](C)(C)[C@@]1([Se]c2ccccc2)CC[C@@H]1C(=O)c1ccccc1` gave a TGI of over 100 µM.

For `C=C(Cl)C(=C)CCC(Cl)C(C)(C)Cl` (centres undefined), the TGI is over 100 µM.

On to `O=C(n1c(=O)n(-c2ccc([N+](=O)[O-])cc2)c(=O)n1C(=O)C(Cl)(Cl)Cl)C(Cl)(Cl)Cl`, for which the TGI is over 100 µM.

Take `Fc1ccc(-c2c(-c3ccncc3)n(CCN3CCOCC3)c3cccnc23)cc1`: the GI50 was over 25 µM and the TGI is over 25 µM.

Consider `NC(=O)Nc1n[nH]c(-c2ccccc2)n1`, for which the TGI is over 100 µM.

In turn, `CN(c1ccccc1)c1c(-c2ccccc2)c(=O)oc2c1ccc1occc12` yielded a TGI of over 100 µM.

For `O=C(N/N=C\c1cc(Cl)ccc1O)N/N=C/c1cc(Cl)ccc1O`, the GI50 was 8.1 µM and the TGI was over 100 µM.

Turning to `COc1ccccc1OCC(O)CO` (centres undefined), the GI50 was over 100 µM and the TGI is over 100 µM.

`NC(=O)c1ccc(NC(=O)c2oc3ccccc3c2-c2cnn(-c3ccccc3)c2)cc1`: the GI50 was over 100 µM and the TGI is over 100 µM.

Consider `CCN(CC)c1ccc(/C=N\NC(=O)c2cccc(Nc3ccnc(C(F)(F)F)c3)c2)c(O)c1`, for which the GI50 was 0.183 µM and the TGI was over 100 µM.

Compound `Cc1cccc(-c2cc(=O)c3c(C)ccnc3[nH]2)c1` displayed a TGI of over 100 µM.

`COCCOC(=O)CCn1cc(F)c(=O)[nH]c1=O`: the GI50 is 7.87 µg/mL and the TGI was over 150 µg/mL.

The compound `Cc1nc(Nc2ccc([N+](=O)[O-])cc2)sc1C(=O)/C=C/c1ccc(N(C)C)cc1` gave a TGI of over 100 µM.

For `COc1cc(/C=C2\N=C(c3ccccc3)N(c3ccc(C(=O)c4ccccc4)cc3N3C(=O)/C(=C/c4cc(OC)c(OC)c(OC)c4)N=C3c3ccccc3)C2=O)cc(OC)c1OC`, the TGI is over 100 µM.

Compound `N#CC(/C(=N\NC(N)=S)C(=O)NC1C2CC3CC(C2)CC1C3)c1ccc(Cl)cc1` (centres undefined) displayed a TGI of over 100 µM.

Regarding `C/C(=N\n1c(N)c(C#N)c(-c2ccc(Cl)cc2)c(C#N)c1=O)c1cccnc1`, the GI50 was over 100 µM and the TGI is over 100 µM.

Regarding `Cn1c(=O)c2[nH]cnc2n(C)c1=O`, the TGI was over 100 µM.

`CCc1ccc(/C=C2/SC(=S)NC2=O)cc1`: the GI50 was 27.8 µM and the TGI is over 100 µM.

`CCC[CH2][Ge]([CH2]CCC)([CH2]CCC)[O]C(=O)CCl`: the GI50 was 3.56 µM and the TGI is 19 µM.

For the compound `CCCCC[C@@H]1OC(=O)[C@@]2(CC3c4ccccc4C2c2ccccc23)[C@H]1C(=O)OC`, the TGI is over 100 µM.

`O=C(NNc1ccc([N+](=O)[O-])cc1)C1OC(CO)C(O)C1O` (centres undefined): the TGI was over 100 µM.

Consider `COCCn1cc(-c2csc(-c3c[nH]c4ccc(F)cc34)n2)c2cccnc21`, for which the GI50 is over 100 µM and the TGI was over 100 µM.

On to `COS(=O)CCOC(=O)c1ccccc1SSc1ccccc1C(=O)OCCS(=O)OC` (centres undefined), for which the TGI is over 100 µM.

Turning to `CCOC(=O)Cn1c(C)nc2nn(Cc3ccccc3)cc2c1=O`, the TGI was over 100 µM.

`O=C(/C=C/c1cccs1)Nc1ncc(Cc2ccccc2F)s1`: the GI50 is 0.612 µM and the TGI was over 100 µM.

For the compound `C[P+](C)(CC(F)(F)F)c1ccccc1`, the TGI was over 100 µM.

For the compound `Cn1cc(/C=C2\C(=O)Nc3cccnc32)c2ccccc21`, the GI50 was 8.48 µM and the TGI is over 25 µM.

`CCn1c2ccccc2c2cc(NC(=O)c3c(C)[nH]c(=O)[nH]c3=S)ccc21` displayed a TGI of over 100 µM.

Consider `NC(=NC1C2CC3CC(C2)CC1C3)Nc1ccc(I)cc1` (centres undefined), for which the GI50 is 3.6 µM and the TGI is 14.8 µM.

In the case of `CCn1cc(C2NC(=O)c3cc(F)ccc3N2)c2cccc(Cl)c21` (centres undefined), the GI50 was 0.621 µM and the TGI is over 100 µM.

As to `Cc1ccc(NC(=O)CCC(=O)C(C#N)c2ccc(Cl)cc2)cc1C` (centres undefined), the TGI is over 100 µM.

`COc1cc(C(N)=O)c(OC)c(OC)c1OC` showed a TGI of over 100 µM.

For `COc1cc(Nc2ncc(-c3ccccc3)o2)cc(OC)c1OC`, the GI50 was 1.78 µM and the TGI is over 25 µM.

`O=C1CCC(c2ccccc2)(c2ccccc2)CC1`: the TGI is over 100 µM.

For `C1CN(C23OC4(N5CCOCC5)C5C6CC(C7C6C4C72)C53)CCO1` (centres undefined), the TGI was over 100 µM.

Compound `Cc1cc(C(=O)NCCN(C)C)c2nc3ccccc3nc2c1` yielded a TGI of 35.2 µM.

With `C=C1C(=O)C23C(CC(OC(C)=O)C1[C@@H]2OC(C)=O)C1(C)C(OC(C)=O)CCC(C)(C)C1C[C@@H]3OC(C)=O` (some centres undefined), the TGI was found to be 3.14 µM.

On to `O=[N+]([O-])c1ccc(-c2nc3ccccc3o2)cc1`, for which the TGI is over 100 µM.

Compound `COc1cc2c(cc1OCc1ccccc1)NC(=O)[C@@H]1C[C@@H](O)CN1C2=O` showed a TGI of over 100 µM.

On to `CC(C)=CCC/C(C)=C/CCC1(C)C2COC(=O)C21` (centres undefined), for which the TGI was over 100 µM.

Consider `O=C(NC(Cc1c[nH]c2ccccc12)C(=O)O)/C(=C/c1ccccc1)NC(=O)c1ccccc1` (centres undefined), for which the TGI was over 100 µM.

For `CC1(C)CN=C(c2ccc3ccccc3c2O)N1`, the TGI is over 100 µM.

As for `CC12CC(=O)NN=C1c1ccccc1C2` (centres undefined), the TGI is over 100 µM.

In the case of `CCCCCCCCCC[C@@H](O)[C@H]1CC[C@@H]([C@H]2CC[C@H]([C@H](O)CCCCCCCCCC[C@@H]3CC(CC(C)=O)C(=O)O3)O2)O1` (some centres undefined), the TGI was over 100 µM.

As for `O=C(O)C(O)C(O)C1[O][Sb][O]C1CO` (centres undefined), the GI50 is over 100 µM and the TGI is over 100 µM.

Regarding `Fc1cc(Nc2ccc3c(OCCCN4CCOCC4)cccc3n2)ccc1Cl`, the GI50 was 2.53 µM and the TGI came to 8.09 µM.

On to `O=c1c2c(=NCCCN3CCCC3)cc3c(=O)n(CCCN4CCCC4)c(=O)c4c(NCCCN5CCCC5)cc(c(O)n1CCCN1CCCC1)c2c4-3`, for which the GI50 is 3.1 µM and the TGI was found to be 9.69 µM.

Consider `COc1ccc(N2C(=O)CSC2c2cc(OC)c(OC)c(OC)c2)cc1` (centres undefined), for which the TGI is over 100 µM.

Take `Cc1ccc(C)c(NC(=O)CCc2n[nH]c(=S)o2)c1`: the TGI is over 100 µM.

`Cc1cccc(/C=N/NC(=S)NC(C)(C)C)n1` displayed a TGI of over 100 µM.

Consider `NC(Cc1ccccc1)C(=O)O` (centres undefined), for which the TGI is over 100 µM.

In the case of `O=C(Nc1ccc(-c2nc3ccc(NC(=O)c4ccc(Cl)cc4)cc3[nH]2)cc1)c1ccc(Cl)cc1`, the GI50 was 9.1 µM and the TGI came to 25.2 µM.

The compound `Cc1nc2ccccc2n1CCc1nc2ccccc2[nH]1` displayed a TGI of over 100 µM.

`Cc1ccc2c(=O)c3c(O)c4c(cc3n(C)c2c1)OC(C)(C)C=C4`: the TGI is over 10 µM.

Compound `O=C(O)CNS(=O)(=O)c1ccc(NC(=O)c2cccc([N+](=O)[O-])c2)cc1` showed a TGI of over 100 µM.

In the case of `C[C@H]1CC(=O)[C@@]2(O)C#C/C=C\C#C[C@@H]3Nc4c(cc(O)c5c4C(=O)c4ccccc4C5=O)[C@]24O[C@]314`, the GI50 was 0.119 µM; the TGI was 0.669 µM and 1.18 µM.

For `CCOc1ccc(N2C(N)=NC(N)=NC2(C)C)cc1`, the GI50 was over 100 µM and the TGI is over 100 µM.

Consider `ClCc1ccc(Cn2cnc3ncnc(Cl)c32)cc1`, for which the GI50 was 1.64 µM and the TGI amounted to 3.02 µM.

Regarding `O=C1CCCC2COc3ccc(O)c1c32` (centres undefined), the TGI was over 100 µM.

Compound `COc1ccc(CNc2cnc3cc(N)ccc3n2)cc1OC` showed a TGI of over 100 µM.

Turning to `CN1C=CN(Cc2ccc(-c3ccccn3)nc2)[CH-]1.CN1C=CN(Cc2ccc(-c3ccccn3)nc2)[CH-]1.[Au+3]`, the GI50 is 3.81 µM and the TGI is over 43 µM.

For the compound `Cc1cc(C(C)(C)C)c(OCCCN2CCOCC2)c(C(C)(C)C)c1`, the TGI was 32.5 µM.

Regarding `C=C1C[C@]23CC[C@@H]4C(CO)(CO)CC(=O)C[C@]4(C)[C@@H]2C(O)C[C@H]1C3` (some centres undefined), the TGI was over 100 µM.

With `COc1cc(C=NCC(=O)CSC(c2ccccc2)c2ccccc2)cc(OC)c1OC`, the GI50 was 24.9 µM and the TGI is over 100 µM.

In the case of `COc1ccc(C2=C(N)c3ccccc3C2=O)cc1`, the TGI was over 100 µM.

Take `CC(=O)N/N=C1\NN(C(C)=O)C2(S1)C(=O)Nc1ccccc12` (centres undefined): the TGI is over 100 µM.

The values are drawn from PubChem BioAssay (NCI).
